Data published in the supplement of paper PMC11417369.
± gives the standard deviation of the averaged measurements. The list shows a part of the results.

Tested on: PfAP2-G AP2 domain (GST-tagged)
Test: gcPBM binding intensity (ln(normalized median fluorescence intensity)); higher = stronger DNA binding
Procedure, shortened: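 The highest Masliner-normalised natural-log median intensity across replicate spots of either probe orientation is reported as binding intensity. GST-tagged P. falciparum DNA-binding domains expressed in E. coli were applied for 1 h to an Agilent 4 × 180k array of primer-extended double-stranded 36-bp intergenic genomic probes plus negative controls, and bound protein was detected with Alexa488 anti-GST antibody and scanned at 488 nm.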

Point of comparison: “ATAACTTATTTTTAAAGTACATTATTATATATATAT [XGTACX_site1620]”, “gcPBM binding intensity (ln)” value 11.1 ± 0.69. Against it:
- AACCACATACCTATAACACACATATACAATATAGAT [CACACA_site7023] — lower, 10.05 ± 0.071
- ACATCATAGAAAAATTGATATATATATATATATATA [CACACA_negctrl_site130] — lower, 9.84 ± 0.54
- TCCACAAAGCATGTAACACACAACATATAAGACATA [CACACA_site972] — lower, 10.1 ± 0.16
- TATATATTTTATTTATGTACGAAAATAAATTAAATT [XGTACX_site3628] — the same, 11.1 ± 0.79
- TTAAAAAAATTAATATGTACATATATTTATATATAT [XGTACX_site5317] — within error, 11.2 ± 0.7
- TATTAAAAAGAGGTGACACACACATATAAATCTAAA [CACACA_site9243] — lower, 10.2 ± 0.19
- TTATTCTTTAACTAAAATTATATATATATATTATAC [CACACA_negctrl_site1597] — lower, 9.845 ± 0.049
- TTGTATGCTTCCCGACTACATTATGCCATAAATGTA [TGCATGCA_negctrl_site136] — lower, 10 ± 0.11
- TATTATATATATAGGTGTACGCATTTGTCCTTTATA [XGTACX_site1385] — within error, 11.7 ± 1.1
- AAACTTATGTTTACATGTACAGAACTTTATATTATG [XGTACX_site4843] — within error, 11 ± 0.45
- TCGAACATTAACATAACACACATATAGATTTATATA [CACACA_site7380] — lower, 9.81 ± 0.028
- ATTACATATGTGAGTTGTACTATAAATATATAATAT [XGTACX_site3718] — the same, 11.1 ± 0.6
- ATTGTAATAAATTGTAGTACATGTAAGGTTTTATTT [XGTACX_site1005] — within error, 11.6 ± 0.77
- AATAAAAATATATCCACACACATATATAAATATGTA [CACACA_site6415] — lower, 10 ± 0.25
- ATGCTTTTTTATAAAAGTACATAAAGTTTTTACACT [XGTACX_site7307] — within error, 11.3 ± 0.81
- CTGCCTTCCATACCCACACACTTCCCATATATTTTA [CACACA_site5491] — lower, 10.2 ± 0.21
- ATTCTTTTATTTAGTAGTACATTTGTATTTTATTCA [XGTACX_site5790] — within error, 11.5 ± 0.95
- GATCCTGGTTCTTGTGGTACTTGTTCATTTGTTATA [XGTACX_site7164] — within error, 11 ± 0.56
- AAAACAAACATTACACGTACAAAACAAGTTATAGAC [XGTACX_site6320] — within error, 11.4 ± 0.74
- TTTTTGATATTAAAGGGTACATTATTTACAAAAAAA [XGTACX_site5284] — within error, 11.2 ± 0.81
- ACAAACAAAGAAAGAACACACATACACAAGATACCT [CACACA_site7353] — lower, 10.1 ± 0.12
- TGAATATTTTATGATTGTACATATTATAATAAACAT [XGTACX_site6113] — within error, 11 ± 0.69
- TTTTTTATTGTGAAACTGATATTATATTTTTTATAA [GTGCAC_negctrl_site559] — lower, 9.635 ± 0.049
- TAAAGTGTAAAATTCACACACATATAAATAAATATA [CACACA_site6765] — lower, 9.95 ± 0.071
- ATATATTTTATACATACACACATATATATATTTTTT [CACACA_site3940] — lower, 9.98 ± 0.071
- TGATTAAATCAAGAAAGTACAAAATGAAATATATAA [XGTACX_site4319] — within error, 11 ± 0.63
- AAAATAATTTTATAGTTGCACTATATCGTATACAAT — lower, 10.14 ± 0.064
- TTTTCATTAAGATACTTATAATAGTTTATTAGTAAA [CACACA_negctrl_site586] — lower, 9.95 ± 0.15
- TTACAAATATTATAATGTACCCATTTTTTTTGCCTT [XGTACX_site6612] — within error, 11.3 ± 0.83
- TTTAAAAAAAAAAATACACACATAAAAGTTTTCAAA [CACACA_site6471] — lower, 9.815 ± 0.049
- TACAAAAGCTATAACATTCACCACATTATAAAAATA [CACACA_negctrl_site1112] — lower, 9.77 ± 0.057
- AATTCAAAGAAAAACTGTACGTGTAGCAAACATCCT [XGTACX_site599] — within error, 11.5 ± 0.93
- TAATATGAAGATGGCAGTACTCTAGTCAATTTTTAC [XGTACX_site5375] — within error, 10.7 ± 0.36
- AAAATATATAAATATACATGCATAATTAATAGTATA [TGCATGCA_site804] — lower, 9.8 ± 0.19
- CTTTTTTTTTTTTTTTGTCCGTATGAGGGACCTATA [XGTACX_site8839] — the same, 11.1 ± 0.86
- ATATCATCTTCTCTATCATTTTTTTTTTTTTTTTTT [CACACA_negctrl_site1220] — within error, 10.4 ± 0.27
- TGAGATAAATGTGGTAGTACATTTTTTTTATATATA [XGTACX_site1918] — within error, 11.4 ± 0.88
- CAAAAATTACCCTTGTGTACACATATATTATATGTA [XGTACX_site1124] — within error, 11.6 ± 0.91
- ATAAAAAAATCAGACACACACACGTAAACACATACA [CACACA_site5529] — within error, 10.3 ± 0.18
- TTAATTATGTTTTGGTGTACAATAAATTGAATAGAT [XGTACX_site3306] — within error, 11.6 ± 0.99
- CTACTTAATATTTGTACACACATATTTAACCTACTA [CACACA_site5725] — within error, 11.3 ± 0.78
- ATATATATATATATATGTACATAATAATTTTATAAA [XGTACX_site5105] — within error, 11.3 ± 0.73
- AATAATAATAGAAACACACACACATTTTTAATAATA [CACACA_site1217] — lower, 10.12 ± 0.057
- ATGTTATAATTTAGTGTGCACATATTAAGAGGAACA — within error, 10.6 ± 0.38
- ATATATATTTATATATGTACATATTTTTGTGTATTT [XGTACX_site1183] — within error, 11.3 ± 0.79
- TATACTCATAAATACACACACATATATATATATATA [CACACA_site5822] — lower, 10.1 ± 0.27
- GGGGGCTTTTATAAAAGTACAAAATGAATAAAAATT [XGTACX_site2393] — within error, 11.4 ± 0.97
- TATACATACCCACCCACACACAAAAAAAAAAAAAAA [CACACA_site4632] — within error, 10.3 ± 0.57
- TATCTGTAAATGGACACACACATATATATATATATA [CACACA_site5926] — within error, 10.9 ± 0.6
- AAAATATAATATAATGCACACATAAAAAAAAAATCA [CACACA_site7922] — lower, 10.1 ± 0.26
- TCTTTATTATTCGCCACACACATATATATATATATA [CACACA_site3077] — lower, 10.2 ± 0.17
- TTTTAAAAAAAATAAAAAATAAACAATAATAAATAA [CACACA_negctrl_site721] — lower, 9.8 ± 0.014
- TATATATATAAAAATACACACATGAATGAATATATA [CACACA_site419] — lower, 9.86 ± 0.042
- AAAATATAATATAATGCACACATAAAAAAAAAAAAA [CACACA_site7989] — within error, 9.89 ± 0.59
- ATATATGTTCCTTTTACACACATAATCTTTTTTTTA [CACACA_site2661] — lower, 10.24 ± 0.021
- TTTTTAAAAATATACACACACAGATATTATATATAT [CACACA_site786] — lower, 10.1 ± 0.28
- ATATTGTGTTATAAATGTACACAATTTCCTTTCATA [XGTACX_site7481] — within error, 11.3 ± 0.79
- GTATCAATAAAAAACAGTACATATATAATATATTTA [XGTACX_site1083] — within error, 10.8 ± 0.57
- ATATATATATGTATGTATATATATATATATGTTTGA [GTGCAC_negctrl_site561] — lower, 9.82 ± 0.3
- AAAAAAAAGGAAATAACACACATGTATATATCTATA [CACACA_site6856] — lower, 9.72 ± 0.35
- TTCATATAGAATTGTACACACAAAAACGACATTGTG [CACACA_site7061] — within error, 11.4 ± 0.86
- AAAAAATAATATTGTACACACATAAATTCTTTGTCA [CACACA_site5187] — within error, 11.3 ± 0.79
- ATGTATGGAAATTTTACACACAAGAGTAGTTTAAAA [CACACA_site1710] — lower, 9.98 ± 0.13
- TATGTGTATACAATATGTACATATGTTAACTTGTAT [XGTACX_site872] — within error, 11.3 ± 0.75
- TTAAATAAATATAAGTGTACATACACACTTTACAAT [XGTACX_site6348] — within error, 11.2 ± 0.85
- GCATATGTTCAGCGTTGTACATAAAAAAAAACATAT [XGTACX_site5974] — within error, 11.3 ± 0.93
- GCGTAATCTATTTGCACACTTATTTGTTCTTAAAAA [CACACA_site672] — lower, 10.2 ± 0.14
- TTTAATAAAAAAATTAAAAATAAAGAAAAAAAAAAA [CACACA_negctrl_site1464] — lower, 9.6 ± 0.19
- AAATATATATAAAACTCACACATTATCTTATAACCA [CACACA_site5268] — lower, 9.78 ± 0.085
- TGAGATAACAAAAGTTGTACTTTTTTTTTTTTTTTT [XGTACX_site3004] — within error, 11.6 ± 0.87
- TTTTGAAAGTTTTTGTGTCCACATATATTTATATAT [XGTACX_site6563] — within error, 11.4 ± 0.93
- GTTTAAAGTTGAACAAGTACACATTTATATAAGGCA [XGTACX_site351] — within error, 11.5 ± 0.95
- TTTATTTATTACTAAAGTACTAAATCATATAATTAT [XGTACX_site3654] — within error, 10.6 ± 0.65
- TACTTTTTAAAAATGTTTTATATAATAAAAAGATAT [CACACA_negctrl_site678] — lower, 10 ± 0.2
- AAAAAAAATAATATTGTACACACATAAATTCTTTGT [CACACA_site8654] — within error, 11.2 ± 0.67
- TTTTATAAATACACACGTACGTGTGCATAACGTTTT [XGTACX_site3199] — within error, 11 ± 0.56
- ATTATAAACCAGAATGCATGTAGATGAATCTTTTCT [TGCATGCA_site284] — lower, 9.73 ± 0.2
- TAAAAATATAAAACATGTACATATATGCATATATTT [XGTACX_site8093] — the same, 11.1 ± 0.71
- ATATCATAAGTAGAAACACACAATTAGATTTTTTCC [CACACA_site2353] — lower, 9.73 ± 0.15
- TATAAAAGAAACTATACACACATATTTTAAATATTT [CACACA_site2753] — lower, 9.815 ± 0.064
- GTACTTGTATTATGCACACATATAATTAAACATATA [CACACA_site3312] — within error, 10.6 ± 0.3
- TAATTGAGCAAATGAGTGCACAGCATAAAGTATAGT [GTGCAC_site9497] — within error, 10.6 ± 0.22
- AAATTTAAAATAAGTAGTACATAATATAAATAAATA [XGTACX_site3592] — within error, 11.6 ± 1
- TTTTTTTTTTTCAATAGTACTTTCCATTTACATATA [XGTACX_site3889] — within error, 10.8 ± 0.48
- TAAGCCTTTCTATTATGTACTTATTAAAACATGTAG [XGTACX_site8022] — within error, 11.2 ± 0.81
- CTTATATTAAAACACACACACGCACAAAACAGAAAT [CACACA_site1462] — within error, 10.6 ± 0.48
- AAATTTATTTCTGTGTGTCCACAAAAAAAAATCTTT [XGTACX_site691] — within error, 11.3 ± 0.81
- TTTTTTTCTCTTTTTATTACAAAAAGGGTTTATATA [TGCATGCA_negctrl_site75] — lower, 9.96 ± 0.23
